Experimental data taken from PubChem BioAssay AID504832 (National Center for Advancing Translational Sciences (NCATS), 2011).
Out of some 310,000 compounds screened, about 18,000 (5.8%) were called active. This list was built around the results that the source calls inconclusive (neither active nor inactive); the mix of calls is not that of the screen. Calls follow the shape of the dose curve; as a rule, active = well fitted inhibition curve with a large enough effect; inconclusive = small, poorly fitted or top-dose-only effect, or another doubt; inactive = no such curve, though single readings can be large or run the other way. No potency is given beside an inconclusive call; the fits are too rough.

Experiment: Primary qHTS for delayed death inhibitors of the malarial parasite plastid, 48 hour incubation
Details: P. falciparum luciferase growth in erythrocytes; series mostly up to 28.7 µM
How it was run: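 Compounds are pin-transferred into medium, infected erythrocytes (2% hematocrit, 0.1% parasitemia final) are added, and plates sit one parasite generation at 37 C in 5% CO2. Detection reagent is then added and luminescence measured.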
% is scaled to controls: 0 for no effect and ±100 for the full control effect; potency is read from the fitted curve at half-maximal effect; tags tell the direction and shape of the fitted curve.

| Structure (SMILES) | Potency | activity change, negative = inhibition |
| --- | --- | --- |
| OCC(Cc1ccccc1)Nc1c2ccccc2nc2ccccc12 (centres undefined) | active: 2.62 µM | – |
| COc1ccc(NC(=O)c2ccc3c(SCC(=O)O)c4c(nc3c2)CCCC4)c(OC)c1 | inconclusive [inhibitor, partial curve, poor fit] | – |
| O=S(=O)(NCc1c(Cl)cccc1Oc1ccccc1)c1ccccc1 | inconclusive [inhibitor, single point] | – |
| CCOc1ccc(C2c3[nH]c4ccccc4c3CCN2Cc2cccn2-c2ncccn2)cc1 (centres undefined) | inconclusive [inhibitor, partial curve, poor fit] | – |
| Cc1ccc2c(c1)S/C(=C/c1ccc[n+](C)c1)N2CCO | inconclusive [inhibitor, partial curve] | – |
| COc1ccc(N2CCN(C(=O)C3Cc4ccccc4CN3C(=O)c3ccccc3)CC2)cc1 (centres undefined) | inconclusive [inhibitor, single point] | – |
| COc1ccccc1CN1CCc2c([nH]c3ccccc23)C1 | inconclusive [inhibitor, full curve, poor fit] | – |
| CCn1c(=O)c(C(=O)NCCCO)c(O)c2ccccc21 | inactive | – |
| O=c1[nH]c2cc3c(cc2cc1CN(Cc1ccccc1)Cc1nnnn1Cc1ccco1)OCCO3 | inconclusive [inhibitor, single point] | – |
| COC(=O)c1ccccc1NC(=O)c1ccc(COc2ccc(C)c(C)c2)o1 | inconclusive [inhibitor, full curve, poor fit] | – |
| C=Cc1ccc(Cn2nc(-c3ccccc3)ccc2=O)cc1 | inactive | – |
| O=S(=O)(c1ccccc1)N1CCN(c2cccc(Cl)c2)CC1 | inconclusive [inhibitor, single point] | – |
| COc1ccccc1NS(=O)(=O)c1ccc2oc(SCC(=O)N3CCNC3=O)nc2c1 | inconclusive [inhibitor, single point] | – |
| Cc1ccc(Nc2nc(N)nc(CN3CCN(Cc4ccc5c(c4)OCO5)CC3)n2)cc1 | active: 10.4 µM | – |
| Cc1cccc(-n2c(-c3ccccc3)c[nH]c2=S)c1C | inconclusive [inhibitor, partial curve] | – |
| COc1ccc(S(=O)(=O)N2CCN(C(=O)c3cc(-c4ccccc4OC)n[nH]3)CC2)cc1 | active: 1.31 µM | – |
| CC1Sc2ccc(S(=O)(=O)N3CCC(C(=O)NCC(C)c4ccccc4)CC3)cc2NC1=O (centres undefined) | inconclusive [inhibitor, partial curve] | – |
| COc1cc(C(=O)OC(C)CN2C(C)CCCC2C)cc(OC)c1OC (centres undefined) | inactive | – |
| COc1ccc(S(=O)(=O)N2CCOC23CCN(C(=O)c2ccc(Cl)cc2Cl)CC3)cc1 | inconclusive [inhibitor, single point] | – |
| CC(C)(CNC(=O)c1sc2cc(Cl)ccc2c1Cl)N1CCOCC1 | inconclusive [inhibitor, single point] | – |
| CC(=O)c1cc(C#N)c(SCCC(C)C)nc1C | inconclusive [inhibitor, partial curve, poor fit] | – |
| COc1cc(OC)nc(Oc2cc(C=O)ccc2OC)n1 | inactive | – |

| Structure (SMILES) | Potency | activity change, negative = inhibition |
| --- | --- | --- |
| C=CCn1c(=O)c2ccccc2n2c(SCc3nc4ccccc4s3)nnc12 | inactive | – |
| C(=N\n1c2ccccc2c2ccccc21)/c1ccccc1 | inactive | – |
| COCCN(CCOC)S(=O)(=O)c1ccc(C(=O)Nc2ccc([N+](=O)[O-])cc2OC)cc1 | inactive | – |
| O=C(O)C1C2CCC(C2)C1C(=O)Nc1cccc([N+](=O)[O-])c1 (centres undefined) | – | inactive: 9.89% [at 0.00184 µM] |
| CCN(CC)S(=O)(=O)c1ccc(N2CCOCC2)c(NC(=O)COc2ccccc2)c1 | active: 9.28 µM | – |
| O=C(c1ccco1)N1CCN(C(=O)c2ccccc2OC(=O)C23CC4CC(CC(C4)C2)C3)CC1 | inconclusive [inhibitor, single point] | – |
| O=C(NCc1ccc2c(c1)OCO2)c1ccc(Cl)c(S(=O)(=O)N2CCOCC2)c1 | inconclusive [inhibitor, single point] | – |
| COc1ccc(C(=O)Cn2c(NCCO)nc3ccccc32)cc1OC | inactive | – |
| CC1Cc2cc(S(=O)(=O)N3CCC(C(=O)N(C)Cc4ccco4)CC3)ccc2N1C(=O)C1CCC1 (centres undefined) | active: 11.7 µM | – |
| CCc1ccccc1NC(=O)C(C)n1nc([N+](=O)[O-])c(Br)c1C (centres undefined) | inconclusive [inhibitor, full curve, poor fit] | – |
| CCC(Sc1nc(=O)cc(N)n1-c1cccc(C)c1)C(=O)Nc1cc(C)on1 (centres undefined) | inconclusive [inhibitor, single point] | – |
| O=[N+]([O-])c1ccc(N2CCN(c3ccc(O)cc3)CC2)cn1 | inconclusive [inhibitor, single point] | – |
| C=CC(=O)N(CCC)C(c1ccccc1)c1ccccc1OC (centres undefined) | active: 13.1 µM | – |
| Cc1ccccc1Cn1cc(CCC(=O)N2CCOCC2)c2ccccc21 | inconclusive [inhibitor, partial curve] | – |
| COc1ccc(CCNC(=O)c2nnn(CC(=O)Nc3cccc(F)c3)c2N)cc1OC | inactive | – |
| CN1C2CCC1CC(NC(=O)CSc1ccc(C(C)(C)C)cc1)C2 (centres undefined) | inconclusive [inhibitor, single point] | – |
| CCc1ccc(-c2csc(-c3c[nH]c4ccccc34)n2)cc1 | inactive | – |
| Oc1ccc(/C=N/Nc2cc(N3CCCC3)nc(N3CCCC3)n2)cc1 | inconclusive [inhibitor, full curve, poor fit] | – |
| CCOC(=O)N1CCC(N2Cc3cccc(C(=O)NCc4ccccc4OC)c3C2=O)CC1 | active: 13.1 µM | – |
| Cc1cccc(CN2CCCC(C(=O)c3ccc4c5c(cccc35)CC4)C2)n1 (centres undefined) | inconclusive [inhibitor, full curve] | – |
| O=C1CC(SC(=Nc2ccccc2)Nc2ccccc2)C(=O)N1c1ccc(Cl)cc1 (centres undefined) | inconclusive [inhibitor, partial curve, poor fit] | – |
| O=C(CNC(=O)c1ccco1)N/N=C/c1c[nH]c2ccccc12 | inconclusive [inhibitor, full curve, poor fit] | – |
